From PubChem BioAssay AID485364 (National Center for Advancing Translational Sciences (NCATS), 2010)
The campaign covered roughly 360,000 compounds. About 11,000 (3.1%) were called active. Inconclusive results, whose numbers are uncertain, are shown with a selection of clear calls. Calls follow the shape of the dose curve; as a rule, active = well fitted inhibition curve with a large enough effect; inconclusive = small, poorly fitted or top-dose-only effect; inactive = no such curve, though single readings can be large or run the other way. No potency is given beside an inconclusive call; the fits are too rough.

What follows are compounds tested against Schistosoma mansoni thioredoxin glutathione reductase (TGR) (UniProt Q962Y6) (assay: qHTS Assay for the Inhibitors of Schistosoma Mansoni Peroxiredoxins). Conditions: purified TGR, DTNB reduction, TNB absorbance 405 nm; activity change, negative = inhibition: at 114 µM (top of the series) unless noted.
Method in brief: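 First, TGR (20 nM dispensed) and NADPH were mixed with compound. Second, a 15 min room-temperature incubation followed. Third, further NADPH and then DTNB were added to start the reaction. Finally, TNB absorbance was monitored kinetically.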
% is scaled to controls: 0 for no effect and ±100 for the full control effect; potency is read from the fitted curve at half-maximal effect; tags tell the direction and shape of the fitted curve.
Also: nearly all actives have a fitted effect of over 60% in size.

Structure (SMILES) | Potency | activity change, negative = inhibition
Cc1ccc(-c2nc(C)c(CCNC(=O)c3ccco3)s2)cc1 | inconclusive [inhibitor, partial curve] | 
CCN(c1cccc(C)c1)S(=O)(=O)c1nnc(NC(=O)C2CCCCC2)s1 | inconclusive [inhibitor, partial curve] | 
COc1ncccc1C(=O)N1CCCC(N2CCN(c3cccc(Cl)c3)CC2)C1 (configuration not stated) | inconclusive [inhibitor, full curve, poor fit] | 
Cc1cccc(C)c1NC(=O)C(NS(=O)(=O)c1ccc2c(c1)CCC(=O)N2)c1ccccc1 (configuration not stated) | inconclusive [inhibitor, partial curve, poor fit] | 
CCOC(=O)c1cc2c(=O)n3ccccc3nc2n(Cc2ccco2)c1=NC(=O)c1cccnc1 | active: 22.4 µM | 
COC(=O)c1nc(NC(=O)C(C)C)n[nH]1 | active: 17.8 µM | 
N#C/C(=C/c1ccc(N2CCCCC2)o1)C(=O)NCCc1c[nH]c2ccccc12 | inconclusive [inhibitor, partial curve] | 
CCOC(=O)c1[nH]c2c(c1Cc1ccccc1)C(=O)CC(c1ccc(Cl)cc1)C2 (configuration not stated) |  | inactive: 2.71%
O=P(O)(CN1CCCCCC1)C1Cc2ccccc2C1 | inconclusive [inhibitor, partial curve] | 
COc1cc(C2C3=C(CCCC3=O)Nc3[nH]n(-c4ccccc4)c(=O)c32)ccc1O (configuration not stated) | inconclusive [inhibitor, partial curve] | 
N#CC1=C(SCC(=O)c2ccc(Cl)cc2)NC2=C(C(=O)CCC2)C1c1ccco1 (configuration not stated) | inconclusive [inhibitor, partial curve] | 
COc1cc(C#Cc2c(-c3ccccc3OC)oc3ccccc23)cc(OC)c1 | inconclusive [inhibitor, full curve] | 
COc1cccc(C2=CC(c3ccc(N(C)C)cc3)n3ncnc3N2)c1 (configuration not stated) | inconclusive [inhibitor, full curve] | 
Cc1ccc(OCC(=O)N2CCC(C)CC2)c([N+](=O)[O-])n1 | inconclusive [inhibitor, single point] | 
CC1(C)Cc2c(C#N)c(N)sc(=S)c2CO1 | inconclusive [inhibitor, partial curve] | 
Cc1ccc(C)c(S(=O)(=O)N2CCN(Cc3ccc(O)c4ncccc34)CC2)c1 | inconclusive [inhibitor, full curve, poor fit] | 
CCc1cc2c(COC(=O)c3cc(S(=O)(=O)N4CCOCC4)ccc3F)cc(=O)oc2cc1O |  | inactive: -28.4%
Cn1cccc1/C=N/N1CCN(Cc2cccc3ccccc23)CC1 | inconclusive [inhibitor, partial curve] | 
O=C(C[n+]1ccccc1)NNc1ccccc1 | inconclusive [inhibitor, partial curve] | 
Cc1ccc(C(=O)NCCc2ccc(Cl)cc2)cc1-n1c(C)nc2cccnc21 |  | inactive: -2.7%
CCOC(=O)Nc1sc(NS(=O)(=O)c2ccccc2)nc1C | active: 50.1 µM | 
CCN(CC)CCN1C(=O)C(=O)/C(=C(/O)c2ccc(OC)cc2)C1c1ccco1 (configuration not stated) | active: 39.8 µM | 
CCOCCCNC(=O)C1CCN(c2nn3cc(-c4ccc(F)cc4)nc3s2)CC1 |  | inactive: 0.6%
Cn1nc(C(=O)Nc2nc3ccccc3[nH]2)c2ccccc2c1=O |  | inactive: -19.4%

Structure (SMILES) | Potency | activity change, negative = inhibition
CC(=O)N1CCN(c2ccc(NC(=O)c3ccc(Br)o3)cc2Cl)CC1 | inconclusive [inhibitor, partial curve] | 
Cc1ccc(-c2nnc(Nc3ccc(O)cc3)c3ccccc23)cc1S(=O)(=O)N1CCN(C)CC1 | inconclusive [inhibitor, partial curve] | 
Cc1c(C(=O)CN2CCOCC2)[nH]c2ccccc12 | inconclusive [inhibitor, partial curve] | 
Cc1cnn(C(=S)NCc2ccco2)c1 | inconclusive [inhibitor, partial curve] | 
O=C(c1cnn(C(=O)c2cccc(S(=O)(=O)N3CCOCC3)c2)c1)c1cc(Cl)cc(Cl)c1O | inconclusive [inhibitor, partial curve, poor fit] | 
COc1ccc(CN2C(=O)NC(=O)/C(=C\c3ccc(OC)c(OC)c3OC)C2=O)cc1 | inconclusive [inhibitor, full curve, poor fit] | 
Cn1cnc(S(=O)(=O)NC2CCN(Cc3ccccc3)CC2)c1 | inconclusive [inhibitor, single point] | 
CCOc1ccc(C2/C(=C(\O)c3ccc4c(c3)OCCO4)C(=O)C(=O)N2CCCN2CCOCC2)cc1OC (configuration not stated) | inconclusive [inhibitor, partial curve] | 
COC(=O)c1sccc1NC(=S)Nc1ccc(OC)cc1 | inconclusive [inhibitor, partial curve] | 
O=C(O)CCc1ccc(-c2cccs2)o1 | active: 0.708 µM | 
Cc1ccc(NC(=O)C2Cc3ccccc3CN2C(=O)c2ccco2)cc1S(=O)(=O)N(C)C (configuration not stated) | active: 39.8 µM | 
Cc1nc2nc(-c3ccccc3)[nH]n2c(=O)c1Cc1ccccc1 | inconclusive [inhibitor, single point] | 
O=C(c1ccccc1[N+](=O)[O-])N1N=C(c2ccccc2)CC1(O)C(F)(F)F (configuration not stated) | inconclusive [inhibitor, partial curve] | 
CCOC(=O)c1ccccc1NC(=O)C1CC(=O)N(C2CCCCC2)C1 (configuration not stated) |  | inactive: -7%
CC1=C(C(=O)N(C)C)C(c2cccc(Cl)c2)NC(=O)N1 (configuration not stated) | inconclusive [inhibitor, partial curve] | 
CSc1cccc(NC(=O)Cn2c3ncccc3c(=O)n2-c2ccc(C)cc2)c1 |  | inactive: -2.23%
O=C(Nc1cccc(C(=O)O)c1)/C(=C\c1ccco1)NC(=O)c1ccccc1 | inconclusive [inhibitor, partial curve] | 
COc1ccc(NC(=S)Nc2ccccc2Cl)cn1 | active: 20 µM | 
COc1ccccc1CNC(=O)c1ccc(N2CCCC2)c(NC(=O)NCCC(C)C)c1 | inconclusive [inhibitor, single point] | 
O=C(c1cccs1)N1CCc2c([nH]c3ccccc23)C1c1ccc(Cl)cc1 (configuration not stated) |  | inactive: -23.4%
O=C(NCC(c1ccco1)S(=O)(=O)c1cccs1)c1ccc(F)cc1 (configuration not stated) | active: 7.08 µM | 
Cc1cc(-c2n[nH]c(=S)n2Cc2ccccc2)cs1 |  | inactive: 2.9%
COc1ccc(OC)c(NC(=S)NCc2cccnc2)c1 | inconclusive [inhibitor, partial curve] | 
C=CC#CC[N+]1(CC#Cc2ccccc2)CCOCC1 | active: 39.8 µM | 

Structure (SMILES) | Potency | activity change, negative = inhibition
CCn1c(=S)[nH]c2c(c1=O)C(C)(C)Cc1ccccc1-2 |  | inactive: 0%
OC(C#Cc1ccccn1)c1cccs1 (configuration not stated) | active: 1.41 µM | 
COc1cccc(C(=O)NC(=S)Nc2ccc(N3CCCC3)cc2)c1 | inconclusive [inhibitor, full curve] | 
COc1ccc(CNC(=O)C(=O)NCCC2CCCCN2S(=O)(=O)c2ccc(C)cc2)cc1 (configuration not stated) |  | inactive: 0.936%
O=[N+]([O-])c1ccc(C(O)CSC(=S)N2CCCCC2)cc1 (configuration not stated) |  | inactive: -4.53%
O=C(CNc1ccccc1)c1ccc([N+](=O)[O-])cc1 | inconclusive [inhibitor, partial curve] | 
COc1ccc(CNC(=O)c2c(O)nc3cc(C)ccn3c2=O)cc1 | inconclusive [inhibitor, single point] | 
O=C(/C=C/c1ccco1)NCc1ccccn1 | active: 3.55 µM | 
COc1ccc(C(c2nnnn2Cc2cccs2)N2CCN(c3ccc(F)cc3)CC2)cc1OC (configuration not stated) | inconclusive [inhibitor, partial curve] | 
COC(=O)c1ccccc1NC(=O)COC(C)=O | inconclusive [inhibitor, full curve, poor fit] | 
Cc1ccc(C)c(-n2c(CCC(=O)O)ccc2-c2ccc(Cl)cc2)c1 | inconclusive [inhibitor, single point] | 
C=CCOc1ccc(C2OC34CCCCC3C(C#N)(C#N)C2(C#N)C(=N)O4)cc1 (configuration not stated) | inconclusive [inhibitor, full curve] | 
c1coc(-c2nnc(SCc3nc4ccccc4[nH]3)o2)c1 | inconclusive [inhibitor, full curve] | 
CCCCc1ccc(N=N/C(C(=O)Nc2cc(OC)c(NC(C)=O)cc2OC)=C(/C)O)cc1 |  | inactive: -9.14%
O=c1cc(-c2ccco2)nc(SCc2cccc(Cl)c2)[nH]1 | inconclusive [inhibitor, partial curve] | 
Cc1cc(C(=O)NC2CC(C)(C)Cc3c2cnn3-c2cccc(F)c2)n(C)n1 (configuration not stated) |  | inactive: 0.785%
COc1ccc(-n2nnnc2SCC(=O)Nc2ccccc2N2CCOCC2)cc1OC | inconclusive [inhibitor, partial curve] | 
O=C(/C=C/c1ccc([N+](=O)[O-])cc1)N(c1ccccn1)C1CCCCC1 | inconclusive [inhibitor, partial curve] | 
CC1CCCCC1NC(=S)NC(=O)c1ccccc1Br (configuration not stated) | inconclusive [inhibitor, partial curve] | 
O=C(Cn1cccc1)N1CCN(c2ccc(F)cc2)CC1 | inconclusive [inhibitor, full curve] | 
Nc1cccc2nc3ccccc3cc12 |  | inactive: -1.91%
COc1ccc2c(Cl)c(C(=O)NN)sc2c1 |  | inactive: -18.7%
Cn1c(=O)c2c(nc(NCc3ccco3)n2C)n(C)c1=O |  | inactive: 39.2%
O=C(Oc1cccc2cccnc12)c1ccc(N2C(=O)C3C4CCC(C4)C3C2=O)cc1 (configuration not stated) |  | inactive: -1.32%
